According to article PMC10929226:
Results are given in words; binding and its absence hold for the method and conditions named. In cells and extracts the contact can be indirect. Some entries that bind do so weakly or less than the wild type. Values belong to the molecule of their own block, whether it stands above or below them.

Protein sequences, listed by entry. Tags and fused reporters are not part of them. Lines headed by an entry give the natural chain unless they say otherwise; changes in a name come on top. Residues count along the entry.
UniProt Q62419: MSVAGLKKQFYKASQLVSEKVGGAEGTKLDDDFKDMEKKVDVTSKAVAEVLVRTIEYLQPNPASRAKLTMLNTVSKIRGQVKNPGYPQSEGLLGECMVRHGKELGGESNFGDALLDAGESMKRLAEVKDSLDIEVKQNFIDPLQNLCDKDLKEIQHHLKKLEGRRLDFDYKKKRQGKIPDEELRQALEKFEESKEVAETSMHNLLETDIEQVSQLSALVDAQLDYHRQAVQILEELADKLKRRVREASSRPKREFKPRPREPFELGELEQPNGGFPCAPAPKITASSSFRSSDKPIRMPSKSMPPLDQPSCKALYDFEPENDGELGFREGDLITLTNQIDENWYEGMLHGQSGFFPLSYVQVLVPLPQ
EndoA2-His (aa 1-308): residues 1-308 of Q62419
EndoA2-His (aa 1-254): residues 1-254 of Q62419
UniProt P28741: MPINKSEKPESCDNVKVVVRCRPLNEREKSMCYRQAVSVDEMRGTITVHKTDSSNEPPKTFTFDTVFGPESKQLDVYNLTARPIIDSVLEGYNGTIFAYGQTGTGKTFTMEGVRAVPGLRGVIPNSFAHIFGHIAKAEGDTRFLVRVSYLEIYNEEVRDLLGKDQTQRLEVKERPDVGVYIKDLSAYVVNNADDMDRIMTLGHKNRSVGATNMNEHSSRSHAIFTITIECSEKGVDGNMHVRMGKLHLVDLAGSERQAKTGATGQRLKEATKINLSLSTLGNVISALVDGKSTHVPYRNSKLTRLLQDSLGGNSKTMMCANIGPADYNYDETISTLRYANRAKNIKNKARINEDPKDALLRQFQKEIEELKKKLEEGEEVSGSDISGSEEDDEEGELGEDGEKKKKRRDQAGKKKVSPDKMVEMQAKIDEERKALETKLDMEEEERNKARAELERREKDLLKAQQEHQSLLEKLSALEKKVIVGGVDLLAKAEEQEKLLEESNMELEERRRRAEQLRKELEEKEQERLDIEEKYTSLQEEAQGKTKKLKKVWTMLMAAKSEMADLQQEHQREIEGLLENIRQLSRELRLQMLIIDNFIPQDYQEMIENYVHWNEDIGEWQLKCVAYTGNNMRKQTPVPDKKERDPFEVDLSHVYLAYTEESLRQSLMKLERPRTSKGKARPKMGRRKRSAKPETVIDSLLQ
UniProt Q61768: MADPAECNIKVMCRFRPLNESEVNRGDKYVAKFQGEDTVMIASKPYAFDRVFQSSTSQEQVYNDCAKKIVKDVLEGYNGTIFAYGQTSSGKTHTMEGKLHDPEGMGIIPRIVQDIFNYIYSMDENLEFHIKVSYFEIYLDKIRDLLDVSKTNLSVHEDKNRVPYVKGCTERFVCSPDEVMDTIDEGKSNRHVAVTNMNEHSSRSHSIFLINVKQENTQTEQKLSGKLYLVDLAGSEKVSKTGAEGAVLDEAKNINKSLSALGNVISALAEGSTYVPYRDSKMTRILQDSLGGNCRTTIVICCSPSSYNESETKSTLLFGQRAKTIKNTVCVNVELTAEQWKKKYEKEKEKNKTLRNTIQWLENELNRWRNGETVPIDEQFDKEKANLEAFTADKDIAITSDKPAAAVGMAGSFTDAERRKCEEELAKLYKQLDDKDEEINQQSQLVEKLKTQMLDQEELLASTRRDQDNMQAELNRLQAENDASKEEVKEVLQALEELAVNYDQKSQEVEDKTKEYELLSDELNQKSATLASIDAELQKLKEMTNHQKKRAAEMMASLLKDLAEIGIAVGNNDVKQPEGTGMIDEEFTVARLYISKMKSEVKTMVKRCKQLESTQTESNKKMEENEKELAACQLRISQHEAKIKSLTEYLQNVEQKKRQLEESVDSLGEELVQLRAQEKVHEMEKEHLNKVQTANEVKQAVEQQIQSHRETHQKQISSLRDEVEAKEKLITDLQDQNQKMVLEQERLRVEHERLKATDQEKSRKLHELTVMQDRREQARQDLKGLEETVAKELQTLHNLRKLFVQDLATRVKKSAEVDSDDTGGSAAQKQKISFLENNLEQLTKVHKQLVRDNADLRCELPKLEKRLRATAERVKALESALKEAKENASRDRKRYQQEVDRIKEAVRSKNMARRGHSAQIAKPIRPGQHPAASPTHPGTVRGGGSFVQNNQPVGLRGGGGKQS
UniProt P33175: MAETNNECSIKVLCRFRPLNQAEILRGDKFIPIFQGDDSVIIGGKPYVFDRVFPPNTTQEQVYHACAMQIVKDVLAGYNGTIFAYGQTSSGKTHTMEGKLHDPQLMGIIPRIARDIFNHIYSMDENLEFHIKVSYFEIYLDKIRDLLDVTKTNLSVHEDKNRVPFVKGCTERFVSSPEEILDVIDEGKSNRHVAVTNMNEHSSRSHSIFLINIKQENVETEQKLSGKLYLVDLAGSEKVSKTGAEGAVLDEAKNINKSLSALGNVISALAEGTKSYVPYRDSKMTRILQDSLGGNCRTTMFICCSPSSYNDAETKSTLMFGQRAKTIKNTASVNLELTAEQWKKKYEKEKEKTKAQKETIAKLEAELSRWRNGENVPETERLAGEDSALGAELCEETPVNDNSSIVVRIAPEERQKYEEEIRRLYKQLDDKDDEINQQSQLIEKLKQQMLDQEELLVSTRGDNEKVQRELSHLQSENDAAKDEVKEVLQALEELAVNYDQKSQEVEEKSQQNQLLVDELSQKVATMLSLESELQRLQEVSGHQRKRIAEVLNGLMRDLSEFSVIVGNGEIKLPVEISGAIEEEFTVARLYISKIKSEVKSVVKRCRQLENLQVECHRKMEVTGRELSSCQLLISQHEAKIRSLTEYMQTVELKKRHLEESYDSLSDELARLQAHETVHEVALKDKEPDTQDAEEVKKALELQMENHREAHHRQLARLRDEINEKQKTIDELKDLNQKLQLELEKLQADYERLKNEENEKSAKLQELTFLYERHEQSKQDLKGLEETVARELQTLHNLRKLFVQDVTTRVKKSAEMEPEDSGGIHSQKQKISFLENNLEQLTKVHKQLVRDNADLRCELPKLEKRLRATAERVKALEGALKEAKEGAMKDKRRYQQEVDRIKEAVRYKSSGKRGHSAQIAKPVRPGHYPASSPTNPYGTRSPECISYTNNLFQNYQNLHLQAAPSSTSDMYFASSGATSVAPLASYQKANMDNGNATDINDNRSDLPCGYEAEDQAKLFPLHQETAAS
UniProt Q8CD54: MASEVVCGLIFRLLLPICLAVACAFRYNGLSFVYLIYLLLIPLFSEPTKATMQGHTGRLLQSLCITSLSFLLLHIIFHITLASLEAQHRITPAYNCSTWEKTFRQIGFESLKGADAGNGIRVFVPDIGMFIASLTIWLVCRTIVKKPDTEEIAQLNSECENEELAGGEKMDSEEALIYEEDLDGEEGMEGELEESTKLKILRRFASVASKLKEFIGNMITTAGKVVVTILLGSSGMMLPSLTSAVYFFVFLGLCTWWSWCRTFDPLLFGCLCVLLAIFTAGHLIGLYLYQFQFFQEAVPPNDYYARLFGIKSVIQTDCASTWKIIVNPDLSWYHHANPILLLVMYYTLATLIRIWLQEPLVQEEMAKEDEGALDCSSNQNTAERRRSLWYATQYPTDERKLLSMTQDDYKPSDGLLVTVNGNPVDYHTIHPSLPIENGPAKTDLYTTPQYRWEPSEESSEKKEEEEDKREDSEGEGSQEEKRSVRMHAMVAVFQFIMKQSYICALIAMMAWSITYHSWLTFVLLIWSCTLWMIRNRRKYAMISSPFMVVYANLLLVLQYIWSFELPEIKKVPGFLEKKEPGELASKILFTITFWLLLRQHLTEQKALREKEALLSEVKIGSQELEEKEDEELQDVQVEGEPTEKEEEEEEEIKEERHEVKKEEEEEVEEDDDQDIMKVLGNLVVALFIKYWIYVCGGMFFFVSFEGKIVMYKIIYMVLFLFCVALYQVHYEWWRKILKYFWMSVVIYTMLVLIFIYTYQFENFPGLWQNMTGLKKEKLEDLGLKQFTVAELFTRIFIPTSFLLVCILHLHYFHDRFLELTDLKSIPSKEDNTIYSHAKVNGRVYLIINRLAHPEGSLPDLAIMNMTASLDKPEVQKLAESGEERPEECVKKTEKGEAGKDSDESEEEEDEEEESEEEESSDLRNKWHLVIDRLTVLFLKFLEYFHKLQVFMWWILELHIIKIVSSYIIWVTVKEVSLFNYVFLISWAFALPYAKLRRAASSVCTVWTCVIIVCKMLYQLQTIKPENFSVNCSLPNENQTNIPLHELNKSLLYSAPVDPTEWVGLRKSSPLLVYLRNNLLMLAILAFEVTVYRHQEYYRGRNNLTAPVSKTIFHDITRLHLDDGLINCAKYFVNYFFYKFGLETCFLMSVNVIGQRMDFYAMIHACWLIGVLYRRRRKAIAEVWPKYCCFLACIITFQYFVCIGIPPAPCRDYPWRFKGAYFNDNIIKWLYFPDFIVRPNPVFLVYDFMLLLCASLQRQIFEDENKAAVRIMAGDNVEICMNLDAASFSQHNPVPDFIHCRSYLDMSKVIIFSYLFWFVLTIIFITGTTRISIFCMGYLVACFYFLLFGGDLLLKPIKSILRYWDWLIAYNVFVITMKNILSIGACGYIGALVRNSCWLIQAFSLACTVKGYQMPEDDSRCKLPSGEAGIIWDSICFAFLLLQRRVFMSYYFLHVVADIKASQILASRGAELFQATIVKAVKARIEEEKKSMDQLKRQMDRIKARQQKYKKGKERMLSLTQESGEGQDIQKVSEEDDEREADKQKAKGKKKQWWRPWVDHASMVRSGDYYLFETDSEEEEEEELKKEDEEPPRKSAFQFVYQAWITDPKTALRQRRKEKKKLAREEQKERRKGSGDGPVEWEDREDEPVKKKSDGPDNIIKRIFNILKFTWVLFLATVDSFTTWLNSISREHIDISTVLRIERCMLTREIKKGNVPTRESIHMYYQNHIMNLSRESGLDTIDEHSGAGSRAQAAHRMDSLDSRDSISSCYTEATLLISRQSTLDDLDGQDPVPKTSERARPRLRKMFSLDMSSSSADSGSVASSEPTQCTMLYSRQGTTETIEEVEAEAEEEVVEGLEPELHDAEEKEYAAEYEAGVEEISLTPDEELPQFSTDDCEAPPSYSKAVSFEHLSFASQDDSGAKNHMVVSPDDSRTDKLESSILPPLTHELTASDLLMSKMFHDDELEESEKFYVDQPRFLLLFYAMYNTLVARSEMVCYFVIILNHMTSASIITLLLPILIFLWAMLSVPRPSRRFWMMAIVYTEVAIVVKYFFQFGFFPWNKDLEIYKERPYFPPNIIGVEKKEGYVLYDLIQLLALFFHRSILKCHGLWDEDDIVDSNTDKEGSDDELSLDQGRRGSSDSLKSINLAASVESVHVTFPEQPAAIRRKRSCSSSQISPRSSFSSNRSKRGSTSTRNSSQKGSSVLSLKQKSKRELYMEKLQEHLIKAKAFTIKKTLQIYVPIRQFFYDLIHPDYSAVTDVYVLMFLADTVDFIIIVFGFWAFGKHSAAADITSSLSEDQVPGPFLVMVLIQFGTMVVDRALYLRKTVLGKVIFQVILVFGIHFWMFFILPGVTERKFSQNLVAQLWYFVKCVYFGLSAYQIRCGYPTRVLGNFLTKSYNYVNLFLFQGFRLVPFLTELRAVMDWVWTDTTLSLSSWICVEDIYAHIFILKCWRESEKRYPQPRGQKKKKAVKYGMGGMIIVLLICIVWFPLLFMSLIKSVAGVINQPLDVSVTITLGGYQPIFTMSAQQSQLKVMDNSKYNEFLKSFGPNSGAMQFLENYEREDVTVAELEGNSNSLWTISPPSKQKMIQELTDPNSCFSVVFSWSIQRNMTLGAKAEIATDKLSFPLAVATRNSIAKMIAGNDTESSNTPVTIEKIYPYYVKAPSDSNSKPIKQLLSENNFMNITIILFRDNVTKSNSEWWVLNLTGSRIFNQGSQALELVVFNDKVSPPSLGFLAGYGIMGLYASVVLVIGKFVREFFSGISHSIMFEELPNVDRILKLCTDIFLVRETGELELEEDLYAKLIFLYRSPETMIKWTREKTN

What was measured:
[1] = target: Endophilin A2 (mouse (endogenous in DRG)) (UniProt Q62419); assay: co-IP; mouse DRG lysates in cold Co-IP RIPA buffer, immunoprecipitated with EndoA2 antibody (overnight, 4 °C) and protein A/G beads, immunoblotted for the partners
[2] = target: Endophilin A2 (mouse (endogenous in DRG)) (UniProt Q62419); assay: proximity ligation; Duolink PLA on cultured mouse L4-L6 DRG neurons (for KIF5B/Piezo2: of EndoA2^fl/fl mice), fixed with 4% PFA, permeabilised, two primary antibodies
[3] = target: EndoA2-His (aa 1-254) (UniProt Q62419); assay: co-IP; EndoA2-His constructs transiently coexpressed with Piezo2 or myc-KIF5B in HEK293 cells; lysates in cold Co-IP RIPA buffer immunoprecipitated with antibodies as indicated in the figure, protein A/G beads, immunoblot
[4] = target: Full-length EndoA2-His (UniProt Q62419); assay: as above
[5] = target: EndoA2-His (aa 1-308) (UniProt Q62419); assay: as above
[6] = target: Endophilin A2 (mouse (endogenous in DRG)) (UniProt Q62419); assay: co-IP; mouse DRG lysates in cold Co-IP RIPA buffer, immunoprecipitated with EndoA2 antibody (overnight, 4 °C) and protein A/G beads, immunoblotted for the partners; remark: listed apart in the source

Molecule: KIF3A (from UniProt P28741 1-701)
binding [1]: binds weakly

Molecule: kinesin family member 5B (from UniProt Q61768 1-963)
binding [1]: binds
binding [2]: binds

B1: Acid sensing ion channel 3 (protein, UniProt Q6X1Y6 1-530)
chain: MKPPSGLEEAQRRQASDIRVFANSCTMHGLGHIFGPGGLTLRRGLWATAVLLSLAAFLYQVAERVRYYGEFHHKTTLDERESHQLTFPAVTLCNINPLRRSRLTPNDLHWAGTALLGLDPAEHAAYLRALGQPPAPPGFMPSPTFDMAQLYARAGHSLEDMLLDCRYRGQPCGPENFTVIFTRMGQCYTFNSGAQGAELLTTPKGGAGNGLEIMLDVQQEEYLPIWKDMEETPFEVGIRVQIHGQEEPPAIDQLGFGAAPGHQTFVSCQQQQLSFLPPPWGDCNTASVDPDFDPEPSDPLGSPSSSPPYSLIGCRLACESRYVARKCGCRMMHMPGNSPVCSPQQYKDCASPALDAMLRKDTCVCPNPCATTRYAKELSMVRIPSRASARYLARKYNRSETYITENVLVLDIFFEALNYEAVEQKAAYEVSELLGDIGGQMGLFIGASLLTILEILDYLCEVFQDRVLGYFWNRRSSQRRSGNTLLQEELNGHRTHVPHLSLGPRPPTAPSAVTKTLAASHRTCYLVTRL
binding [6]: binds weakly

B2: TACAN/Tmem120a (protein, UniProt Q8C1E7 1-343)
chain: MQSPPPDPLGDCLRNWEDLQQDFQGIQETHRLYRLKLEELTKLQANCTNSITRQKKRLQELALVLKKCRPSLPSESMEAAQELENQMKERQGLFFDMEAYLPKKNGLYLSLVLGNVNVTLLSKQAKFAYKDEYEKFKLYLTIILIVISFTCRFLLNSRVTDAAFNFLLVWYYCTLTIRESILINNGSRIKGWWVFHHYVSTFLSGVMLTWPDGLMYQKFRNQFLSFSMYQSFVQFLQYYYQSGCLYRLRALGERHTMDLTVEGFQSWMWRGLTFLLPFLFFGHFWQLFNALTLFNLARDPECKEWQVLMCGFPFLLLFLGNFFTTLRVVHQKFHSQQHGNKKD
binding [6]: binds weakly

Other lines, results leading:

binding [1]: binds weakly
Molecule: KIF5A (from UniProt P33175 1-1027)

binding [1]: binds
binding [2]: binds
Molecule: Piezo2 (from UniProt Q8CD54 1-2822)

binding [3]: no binding
binding [4]: binds
binding [5]: no binding
Molecule: Piezo2 (plasmid, cloned from mouse DRG) (from UniProt Q8CD54 1-2822)

binding [3]: binds
binding [4]: binds
binding [5]: binds
Molecule: myc-KIF5B (from UniProt Q61768 1-963)

binding [6]: binds weakly
B3: KIF3B (protein, UniProt Q61771 1-747)
chain: MSKLKSSESVRVVVRCRPMNGKEKAASYDKVVDVDVKLGQVSVKNPKGTSHEMPKTFTFDAVYDWNAKQFELYDETFRPLVDSVLQGFNGTIFAYGQTGTGKTYTMEGVRGDPEKRGVIPNSFDHIFTHISRSQNQQYLVRASYLEIYQEEIRDLLSKDQTKRLELKERPDTGVYVKDLSSFVTKSVKEIEHVMNVGNQNRSVGATNMNEHSSRSHAIFVITIECSEVGLDGENHIRVGKLNLVDLAGSERQAKTGAQGERLKEATKINLSLSALGNVISALVDGKSTHIPYRDSKLTRLLQDSLGGNAKTVMVANVGPASYNVEETLTTLRYANRAKNIKNKPRVNEDPKDALLREFQEEIARLKAQLEKRSIGRRKRREKRREGGGSGGGGEEEEEEGEEGEEDGDDKDDYWREQQEKLEIEKRAIVEDHSLVAEEKMRLLKEKEKKMEDLRREKDAAEMLGAKIKAMESKLLVGGKNIVDHTNEQQKILEQKRQEIAEQKRREREIQQQMESRDEETLELKETYTSLQQEVDIKTKKLKKLFSKLQAVKAEIHDLQEEHIKERQELEQTQNELTRELKLKHLIIENFIPLEEKNKIMNRSFFDDEEDHWKLHPITRLENQQMMKRPVSAVGYKRPLSQHARMSMMIRPEPRYRAENIMLLELDMPSRTTRDYEGPAISPKVQAALDAALQDEDEIQVDASSFESTASRKPKARPKSGRKSGSSSSSSGNPASQFYPQSRGLVPK
